Laboratory results: article PMC9618446 (Biomedicine & Pharmacotherapy, 2022)

tested on: SARS-CoV-2 nucleoprotein (NP) expression; format: cell-based

| Compound | expression of NP in Vero-E6 cells (indirect immunofluorescence) |
| --- | --- |
| COc1ccc([C@@H]2CC(=O)c3c(O)cc(O)cc3O2)cc1O [HE, Hesperetin] | significantly inhibited the expression of NP in Vero-E6 cells in a dose-dependent manner |
| COc1c(O)cc2oc(-c3ccccc3)cc(=O)c2c1O [OA, Oroxylin A] | significantly inhibited the expression of NP in Vero-E6 cells in a dose-dependent manner |
| O=C(O)[C@H]1O[C@@H](Oc2cc3oc(-c4ccc(O)cc4)cc(=O)c3c(O)c2O)[C@H](O)[C@@H](O)[C@@H]1O [SC, Scutellarin] | significantly inhibited the expression of NP in Vero-E6 cells in a dose-dependent manner |
